Over roughly 33,000 sequences, “E-score (-0.5 to 0.5)” has its median near -0.035; the highest 2% begin near 0.35. The list shows a part of the results.
What follows are sequences tested against T1, Pdr3 (UniProt P33200) (assay: PBM E-score (8-mer binding enrichment) (E-score (-0.5 to 0.5)); higher = stronger / more preferred TF binding; most listed sequences are background and not binding sites). Details: protein concentration: 200 nM; construct: GST-full length.
T1 sequence: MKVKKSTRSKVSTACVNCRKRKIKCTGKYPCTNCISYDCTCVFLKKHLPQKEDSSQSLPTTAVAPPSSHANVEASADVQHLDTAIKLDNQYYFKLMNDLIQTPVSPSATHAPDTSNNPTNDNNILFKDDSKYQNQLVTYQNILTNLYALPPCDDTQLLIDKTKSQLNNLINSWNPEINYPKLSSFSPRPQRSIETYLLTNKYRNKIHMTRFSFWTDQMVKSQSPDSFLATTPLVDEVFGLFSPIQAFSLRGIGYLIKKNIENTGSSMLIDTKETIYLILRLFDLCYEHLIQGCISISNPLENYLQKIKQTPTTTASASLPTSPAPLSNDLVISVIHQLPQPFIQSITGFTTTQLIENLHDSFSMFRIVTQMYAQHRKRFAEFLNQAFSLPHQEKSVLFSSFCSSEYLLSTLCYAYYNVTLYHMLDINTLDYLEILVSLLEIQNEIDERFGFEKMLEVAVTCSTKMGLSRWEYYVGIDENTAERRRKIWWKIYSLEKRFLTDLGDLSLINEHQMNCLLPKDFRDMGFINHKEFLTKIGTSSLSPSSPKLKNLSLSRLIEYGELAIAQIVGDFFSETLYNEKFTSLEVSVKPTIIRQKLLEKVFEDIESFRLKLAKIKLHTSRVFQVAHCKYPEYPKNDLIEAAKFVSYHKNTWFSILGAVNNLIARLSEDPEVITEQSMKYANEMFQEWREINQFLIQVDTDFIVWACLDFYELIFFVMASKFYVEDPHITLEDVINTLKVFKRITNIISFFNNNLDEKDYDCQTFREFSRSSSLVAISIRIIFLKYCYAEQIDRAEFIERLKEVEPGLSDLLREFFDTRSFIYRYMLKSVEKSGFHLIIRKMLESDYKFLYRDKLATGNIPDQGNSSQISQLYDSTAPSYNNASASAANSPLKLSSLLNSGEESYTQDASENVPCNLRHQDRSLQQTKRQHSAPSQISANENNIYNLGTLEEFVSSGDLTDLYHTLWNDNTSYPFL
In short: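 E-scores (a modified Wilcoxon-Mann-Whitney statistic) were assigned by the Universal PBM Analysis Suite to every ungapped eight-base word pooled with its reverse complement. The input came from universal all-10-mer Agilent arrays made double-stranded by primer extension and probed with GST-tagged yeast transcription factors at about 100-200 nM. Fluorescent anti-GST detected bound protein, and masliner normalised the scans.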

| Sequence | PBM E-score |
| --- | --- |
| GAAGTCTA | -0.208 |
| ACCAGGCG | -0.0145 |
| AGGATAAT | -0.156 |
| GCTTTGGA | 0.0987 |
| AACATCGC | 0.0335 |
| CAACTCCA | 0.0238 |
| AATTGGAT | -0.0847 |
| AAACACGC | 0.0967 |
| CAAGTAGG | -0.219 |
| GACCTCTA | -0.0949 |
| GACGATCA | -0.161 |
| ACGTCGCG | -0.0263 |
| GTCATAAA | -0.112 |
| AGAAATAT | 0.0879 |
| AATAACTA | -0.0565 |
| CGTCGAGA | 0.0361 |
| CGGAGTAA | 0.326 |
| GACGTGGC | -0.15 |
| ATTAAAAT | 0.103 |
| CTTATTCA | -0.156 |
| TAATAAGA | -0.12 |
| CGGGACTC | 0.238 |

| Sequence | PBM E-score |
| --- | --- |
| ATCCCTGG | -0.0752 |
| CAGTCGAA | -0.192 |
| AAGTTATT | 0.0188 |
| ACGCTAAA | -0.228 |
| GGCCATCA | -0.00756 |
| ACCTTCAT | 0.0018 |
| GATCTGAA | -0.153 |
| GGCGAGAC | -0.165 |
| ATTTTGTC | 0.00507 |
| CTGACTCA | -0.208 |
| CAGTACGC | -0.104 |
| CAATGTGG | -0.0954 |
| ACTAGATA | 0.0203 |
| ATAGTTTC | 0.0739 |
| ATAAAGTG | -0.0125 |
| CCTAGGAA | 0.0351 |
| GATGTCTA | -0.124 |
| AATGGAAT | 0.201 |
| CCTTTACG | -0.00314 |
| CTGAAGCC | -0.149 |
| ACTGAGGC | 0.0522 |
| AATCTATC | 0.00821 |

| Sequence | PBM E-score |
| --- | --- |
| AACTGGAT | 0.12 |
| GCACGGGA | 0.315 |
| GACCTTTA | -0.0405 |
| CTGCCCGC | 0.318 |
| CGGTTATA | -0.0544 |
| GAAGCGTA | 0.129 |
| CCTTTCCA | -0.0113 |
| GCCTCTAA | -0.202 |
| CGATAACC | 0.0764 |
| GGTCAGAC | -0.156 |
| ATCCATCA | -0.0246 |
| AATACTCC | 0.0403 |
| CAGTGCCC | -0.155 |
| CGTCGGGC | 0.0413 |
| GAACTAAC | 0.0521 |
| CTTATCCC | 0.00119 |
| CTTACCAA | -0.108 |
| CTATACCC | 0.0696 |
| TGTCACAA | 0.105 |
| ACTAACCT | 0.00892 |
| CGGACGAG | 0.238 |
| AATGAATA | 0.047 |

| Sequence | PBM E-score |
| --- | --- |
| GTACCGCA | 0.151 |
| CCAACACG | -0.0826 |
| GCCTGTCC | -0.058 |
| GATGCTGA | -0.15 |
| ACGGAAAG | 0.44 |
| GACGCTAC | 0.0166 |
| GGCCGCGA | -0.0197 |
| AGGAATTG | -0.00863 |
| CCGAGTAG | 0.221 |
| ATCCCGGG | 0.455 |
| CAGCTGAA | -0.0134 |
| TCTTCACA | -0.255 |
| CGCACAAC | -0.0378 |
| ATCTCCGA | 0.324 |
| ATGAAGCC | 0.179 |
| GTGATATA | -0.093 |
| CACCTAGC | -0.236 |
| ACTGAGTC | -0.0631 |
| ACTCAAAC | -0.132 |
| GACTTACC | 0.0346 |

Source: the supplement of paper PMC3334620
